# According to the supplement of paper PMC11417369:
# Some of the results follow.
# Test system: PfAP2-HC AP2 domain (GST-tagged)
# Assay: gcPBM binding intensity (ln(normalized median fluorescence intensity)); higher = stronger DNA binding
# Summary of the method: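 Each value is the highest Masliner-normalised natural-log median intensity across replicate spots of either orientation of a probe. The probes were primer-extended double-stranded 36-bp intergenic genomic sequences on an Agilent 4 × 180k array, alongside negative controls, exposed for 1 h to GST-tagged P. falciparum DNA-binding domains expressed in E. coli. Bound protein was picked up with Alexa488 anti-GST antibody and scanned at 488 nm.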
row,Sequence,gcPBM binding intensity (ln)
1,TAATAAATGACAAATTAACACACATATATTATATAT [CACACA_site9294],9.82
2,CGCTCTCTTTAATATTGTACATATATATTATATATA [XGTACX_site7017],9.8
3,AATAAATAGAAAGAGGTGCTACATTATATTATTTAT,9.68
4,TTATACGAAGTACGTACACACACTTATATGTTACTA [CACACA_site4019],10.1
5,AATATATGTATATCCACACACATATATATATATATA [CACACA_site1633],9.96
6,TATTTTGTATTCATTTGTCACATATAATAGATAGGA [TGCATGCA_negctrl_site9],9.4
7,ATAGATATAACATATGCATGTAAAATATAACCACTC [TGCATGCA_site60],9.97
8,TGTGCGGAAATAAGTGCACACATAGATATATGTATT [CACACA_site9227],10.2
9,ACATATTTATATGTCTGTACAAATATGCAATTTTTT [XGTACX_site5516],9.66
10,TTAGATAGATTTGTACGTACTTATTATAACGTATCA [XGTACX_site5067],9.5
11,AATTTATAAATAATTAATTTGATAAATTATAAAGGG [GTGCAC_negctrl_site544],9.49
12,AAAAAAAAAAAAAACACACATACATACATACATATA [CACACA_site4121],10.4
13,ATATTTATAACTTGGTGTACTTTGAAAAAAAAAAAA [XGTACX_site5194],9.4
14,ATAATTTTTTAGATCACACATATAAATAAATAAATA [CACACA_site5175],9.47
15,TTATATTAGCCGATGGTGCATATATTTATAGGAAAA [GTGCAC_site9518],9.33
16,GGATAATCATACGAAGCATGCTGAATTTCCAAATAA [TGCATGCA_site1013],9.5
17,AAAAAAATTAAATGGGGTACAATAAGGGTCAAATAT [XGTACX_site8669],10.1
18,TTTTATTATATATATTGTACATATATTTTTATTTTT [XGTACX_site1564],9.85
19,AAAAAAAAAAATGGCTGTACATAATATTTAAATAGG [XGTACX_site4286],9.67
20,GTTATATGAACTTATATACACACCATTTTTGTAAAT [CACACA_site695],9.78
21,AAATCATATTCTTATTTTATTTTTTTTATTTTTTAT [XGTACX_negctrl_site166],9.65
22,TGTAGATATTTTTGGGGTACTTTATAAAGAACTAGT [XGTACX_site5635],9.42

row,Sequence,gcPBM binding intensity (ln)
1,TTACATATATTGGGGTGTACATATATTTTCCTTCAC [XGTACX_site6224],9.82
2,AAAAAAAAAAAAAAAAGTACACATAATTGTATATGT [XGTACX_site6339],9.61
3,AAATATTGTTTTTTATGTACTTATTTTTATTTATTT [XGTACX_site3481],9.8
4,ATGAAAAAGTGCTGGATTCTAAAGAAAAAAAAAAAA [CACACA_negctrl_site962],9.52
5,ATAAAATCAACAAATCAGGATGTCACGTAAATATCA [CACACA_negctrl_site1009],10
6,ATATTTTATATATTTGTGCACAATATTATAATATAT,9.68
7,GAAAAACAAATATATTAACACACAAACATATAAACA [CACACA_site9315],10.2
8,GTTTATTTTTTCATTTGTACACATAAATAAATATAT [XGTACX_site7752],9.77
9,GGTATATATTCTATCACACATATTTCCATGAAAATA [CACACA_site4728],9.58
10,TTAATTATATTATGCACACACAATTGGAAAAAAAAT [CACACA_site1958],9.95
11,TATTTAGAAATAAATACACACATACATTTTTGTATA [CACACA_site4557],9.81
12,AAAAAAAAGAAAAAAACACACAATGGAAAAAATGTA [CACACA_site3675],10.2
13,ACGTTAGGCTTATTTGCACACTTGTATTAAAATTTT [CACACA_site4854],9.83
14,AAAAATATGCTTCCATGTACTTAAAAAAAAAATTTA [XGTACX_site3617],9.37
15,TCAACTTGATTTATATGTACACATATAAGTAATTAT [XGTACX_site1798],9.54
16,TATACAAACTATGATGCACACATATATATATGTATA [CACACA_site8327],9.96
17,AAAAAAAATTTTCTTCTGTTGTATTTTTTATACGTT [GTGCAC_negctrl_site477],9.68
18,TGTTTGAATATAATCACACATTTATATAAAAAGTTA [CACACA_site5237],9.29
19,TCTTTTTGCATGTGTGTGCGCACAAAATACACAAAA [GTGCAC_site9718],10
20,AAATTGAAATATTCCTGTACACATTTTGAAAACTTA [XGTACX_site6101],9.47
21,AAAATATAGTAACACATACACACATATATATTTATA [CACACA_site2504],10.2
22,TTGTTATGTTTTATTTGTACGTAGGTTTCTATCAAA [XGTACX_site7636],9.74

row,Sequence,gcPBM binding intensity (ln)
1,TATTAAACTAAATGTAGTACATACACAAAAGAAACC [XGTACX_site606],9.97
2,AAAAAATATAAATATGTAAAAAGAGAAAAAAAAAAG [GTGCAC_negctrl_site9],9.8
3,ATATTTAATTCATCATGTACACAAATAAGAAACAAA [XGTACX_site8076],9.67
4,TATAAACATAAAACCAGTACATATATATTTTTCTTC [XGTACX_site212],9.73
5,TGAAAATGGGAACCGTGTACAGGGCAGTTATAGGGG [XGTACX_site2950],9.87
6,TTATGAAAATATTTTTTTCGTTTGATGTATATGTTT [CACACA_negctrl_site1556],9.63
7,TAAAAAATTAAGCAACGTACAAATGAAAAGTATAAT [XGTACX_site1058],9.85
8,TGATAACCAAAAAGGGGTACATACACAAAAAAATAC [XGTACX_site1254],10.1
9,AACAACATTTGATAAACACACAGAAGTATAAATATA [CACACA_site5327],9.89
10,TACTTATTAGACTATTGTACATACATTATTAATATT [XGTACX_site7849],9.83
11,TATATCATCATGTATGTACACACATACATATATTAT [CACACA_site8387],9.98
12,TACGTATTATAAATATGTACATATAATATGTATATA [XGTACX_site468],9.66
13,ATAAAGAAAAATAGAAGTACATATATGCATGTTAAT [XGTACX_site4480],9.86
14,AACAATAAAAATAATTGTACAAGTCTAAAAAAAATT [XGTACX_site20],9.79
15,ATAACAAAATAATAATGTACGTATAAATATAATTTA [XGTACX_site6049],9.83
16,CAAAAACATACCTACACACACAATATGTATATATAA [CACACA_site3514],10.2
17,TAACAATAACTTTATACACACATAATATAAATATAT [CACACA_site7635],9.78
18,TAAAATTTTAACAAAAAAAAAAAAAAAAAAAGAAAA [CACACA_negctrl_site1335],9.31
19,CCAACATGCAGACGCACACACAAAAAAAGCATGCAT [CACACA_site74],10.4
20,AATAATATATATATTACACACTAATTGTATTATATA [CACACA_site448],9.71
21,TAACAATATCTAGATACACACACATATCTCTCAATC [CACACA_site8122],10.4
22,ATTTATTTATTTAGCTGTACATTTATACAGAACGAT [XGTACX_site3336],9.51

row,Sequence,gcPBM binding intensity (ln)
1,TTAATACCCGGACACACACACACAAAATAAAATACA [CACACA_site4296],10.6
2,AAAATGAATAAAAATACACACATATATGTTATTCTC [CACACA_site2671],9.88
3,AAATTGAGACAACAGGTGCATATAAATATACAGTGT [GTGCAC_site9634],9.79
4,AATTTTTGTTACAAGATGCACTTAATTTTTCTAAAT,9.49
5,AATAAAAATTCAAGTTGTACTTTTTTAAAAATACAA [XGTACX_site3949],9.09
6,TATTCATTAAACCATACACACATAATTTTTTTATAA [CACACA_site4618],9.82
7,ATATATTATATAAAAAGTACTAAAATAGTAAGATGT [XGTACX_site7493],10.1
8,AATGATTTTAAATGAACATAATTTATATTCATAACA [GTGCAC_negctrl_site256],9.42
9,GTGTGCCAAATTAGCACACACATATATACATGAATT [CACACA_site7346],10.2
10,AACGAAGCATAAAATGTTATGTATATATATAAATAT [TGCATGCA_negctrl_site304],9.79
11,TACCAAAAAAAAAAAATAATAATAAAAAAAAAAAAA [TGCATGCA_negctrl_site11],9.18
12,ATCATTTTGTGTTCAAGTACATAATGTTTTACACAA [XGTACX_site3565],9.65
13,CATACATTATAAGATACATGCATATATCTGAACATA [TGCATGCA_site797],9.7
14,GCAAAACATTTTTAAAATAAAAATAATAAAATATAT [CACACA_negctrl_site219],9.5
15,ACATTGAACAAAATAGTAAGCACATATATATATATA [GTGCAC_negctrl_site679],9.62
16,ACGTATCAATTTATTGGTACACATAAATATATATAT [XGTACX_site5556],9.63
17,TGATTCATTGATAAGGGTACATTTATAATTATGATA [XGTACX_site6319],9.33
18,ACACATAATATAAAGGTGCTATATTGTATTCATTTT [GTGCAC_site9457],9.8
19,TTTTCATACACTGCTAGTATATACTACCACTGACAT [GTGCAC_negctrl_site514],9.8
20,AAACATATATTAAGCACACACAAACAAAAAAACAAA [CACACA_site2549],10.9
21,TGCAAAAAAAAAAAAAAAAAATATATGGAAATATAT [GTGCAC_negctrl_site257],9.37
22,CAATAATATATATATTGTACATTTTTTTTTATTATT [XGTACX_site3149],9.66
